Experimental data from PubChem BioAssay AID686978 (National Center for Advancing Translational Sciences (NCATS), 2013).
Hit rate of the full screen: of about 420,000 compounds, about 64,000 (15%) were called active. The shares of active, inactive and inconclusive entries below differ from those in the screen. The call rests on the fitted dose curve; in most records, active means well fitted inhibition curve with a large enough effect; inconclusive means small, poorly fitted or top-dose-only effect; inactive means flat fitted curve, though single readings scatter. Potencies of inconclusive entries are left out as doubtful fits.

Experiment: qHTS for Inhibitors of human tyrosyl-DNA phosphodiesterase 1 (TDP1): qHTS in cells in absence of CPT; further: nearly all actives have a fitted effect of over 55% in size
Details: DT40 Tdp1-/- hTDP1 cells, no CPT, ATP luminescence, 48 h; activity change, negative = growth inhibition: at 46.2 µM (top of the series)
Method in brief: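 Chicken DT40 Tdp1-/- cells stably complemented with human TDP1 were seeded at 400 cells/well with DMSO in place of 20 nM camptothecin. After compound pinning, cells grew at least 48 hr at 37 °C; viability read by CellTiter-Glo luminescence.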
On the % scale 0 is the no-effect control and ±100 the full control effect; potency means the concentration at half of the fitted maximal effect; tags describe the fitted curve by direction and shape.

SMILES | Potency | activity change, negative = growth inhibition
Cc1onc(-c2c(Cl)cccc2Cl)c1C(=O)NCc1ccccn1 | inconclusive [inhibitor, single point] | 
CC(C)c1nc(SCC(=O)c2ccccc2)c2c(=O)n(C)c(=O)n(C)c2n1 | inconclusive [inhibitor, partial curve] | 
O=C(N/N=C/c1sc(N2CCOCC2)nc1-c1ccccc1)c1ccccc1O | inconclusive [inhibitor, single point] | 
Cc1ccc(Nc2c(-c3ccc(N4CCOCC4)cc3)nc3c(C)cccn23)cc1 | active: 14.6 µM | 
O=C(Nc1nc(-c2cccs2)cs1)c1ccc(Cl)s1 | inconclusive [inhibitor, single point] | 
COC(=O)N=Nc1c(O)[nH]c2ccc(Br)cc12 | inconclusive [inhibitor, partial curve] | 
Cc1nn(C2CCS(=O)(=O)C2)c(C)c1CN(C)C(=O)c1ccc(Cl)cc1 (centres undefined) |  | inactive: 8.49%
CC1=C([N+](=O)[O-])C(c2ccccc2Cl)NC(=O)N1 (centres undefined) | inconclusive [inhibitor, single point] | 
CCCCCOC(=O)C1=C(C)Nc2ncnn2C1c1cccs1 (centres undefined) | inconclusive [inhibitor, single point] | 
CCOc1ccccc1NC(=O)C1CCC(CNc2c(N3CCCCC3)c(=O)c2=O)CC1 (centres undefined) |  | inconclusive: -36.6% [inhibitor]
O=C(NC(=S)Nc1cccc(Cl)c1N1CCCCC1)c1ccc2c(c1)OCCO2 | inconclusive [inhibitor, single point] | 
O=C1[C@H]2[C@H](C=CC[C@H]2C(=O)N2CCOCC2)CCN1Cc1ccccc1 | inactive | 
Cc1[nH]c(C)c(S(=O)(=O)NCc2ccc(OC(C)C)cc2)c1C(=O)N1CCCC1 |  | inactive: -2.22%
O=C(NCc1ccncc1)C(=O)NCC1OCCN1S(=O)(=O)c1ccc(F)cc1 (centres undefined) |  | inactive: 7.66%
C=C1CC2C(=O)N(Cc3cc(OC)ccc3OC)C(C(=O)OCC)(C(=O)OCC)C1N2C(=O)OC(C)(C)C (centres undefined) | inconclusive [inhibitor, single point] | 
Cc1nn2c(N3CCN(C)CC3)c3c(nc2c1-c1ccccc1)CCCC3 |  | inactive: -25.4%
CCOC(=O)C1Sc2[nH]c(=O)sc2C(c2ccc(Cl)cc2)C1C(=O)OCC (centres undefined) | inconclusive [inhibitor, partial curve] | 
O=C(Nc1nc(-c2ccc(Cl)s2)cs1)c1ccncc1 | active: 9.2 µM | 
Cc1ccc(C(=O)N2CCN(c3ccc(NC(=S)NC(=O)c4cccs4)cc3)CC2)cc1 | active: 20.6 µM | 
Cc1nc(CS(=O)(=O)c2ccccc2)cc(Sc2ccc(Cl)cc2Cl)n1 | inconclusive [inhibitor, single point] | 
COCc1cccc(-c2csc(C(O)c3ccc(F)c(F)c3)n2)c1 (centres undefined) | inconclusive [inhibitor, single point] | 
COCCNC(=S)N(CCc1c(C)[nH]c2ccc(F)cc12)Cc1ccco1 | inconclusive [inhibitor, single point] | 
CC1CCc2sc(C(=O)N(C)CC(=O)Nc3ccc(N4CCOCC4)cc3)cc2C1 (centres undefined) |  | inactive: -12.8%

SMILES | Potency | activity change, negative = growth inhibition
Cc1c(NC(=O)COC(=O)C2(c3ccc(F)cc3)CCCC2)c(=O)n(-c2ccccc2)n1C | inconclusive [inhibitor, single point] | 
Cc1ccc(OCC(=O)NNC(=O)CCc2ccccc2)c(Br)c1 | inconclusive [inhibitor, single point] | 
CS(=O)(=O)c1ccc(-c2csc(C(O)(c3ccccc3)C(F)(F)F)n2)cc1 (centres undefined) | inconclusive [inhibitor, single point] | 
Cc1ccc(CSc2nnc(CCCCCNC(=O)OC(C)(C)C)o2)cc1 | active: 18.4 µM | 
C=C1C(=O)OC2C1CCC(C)=CCCC1(C)OC21 (centres undefined) | active: 3.26 µM | 
O=C(CCN1C(=O)/C(=C/c2cccs2)SC1=S)Nc1ccccc1O | inconclusive [inhibitor, single point] | 
CCn1ccnc1CN1CCCCC1C(=O)Nc1ccc(Oc2cccnc2)cc1 (centres undefined) | inconclusive [inhibitor, single point] | 
Cc1ccc(C(=O)Nc2nc(=O)n(C(=O)c3ccccc3Cl)s2)cc1 |  | inactive: -29.4%
COC(=O)[C@@H]1[C@H]2C[C@H]3c4[nH]c5ccccc5c4CCN3C[C@H]2CC[C@@H]1O |  | inactive: -26.8%
O=S(=O)(CS(=O)(=O)Oc1ccccc1)Oc1ccccc1 |  | inactive: -27.4%
O=C(CCC(=O)N(CC(=O)NC1CCCCC1)c1ccc2c(c1)OCO2)Nc1ccccn1 | inconclusive [inhibitor, single point] | 
COc1ccc(NC(=O)Nc2c(SC)nsc2SC)cc1 | inconclusive [inhibitor, single point] | 
CC(C)=CCC/C(C)=C/CNC(=O)C[C@H]1C[C@H](C(=O)N2CCCCC2)[C@@]2(CCc3ccccc3)c3[nH]c4cc(CCC(=O)N(C)C)ccc4c3CCN2C1=O | active: 8.2 µM | 
CCOC(=O)/C(=N\Nc1ccccc1Cl)N1CCN(C)CC1 | inconclusive [inhibitor, single point] | 
CCCCOc1ccc(CN(C)c2ncnc(N)n2)cc1 | inconclusive [inhibitor, single point] | 
Cc1cccc(OCc2nc(-c3ccc(-n4cccc4)cc3)no2)c1 | inconclusive [inhibitor, single point] | 
Cc1oc2ncn(C)c(=O)c2c1C(=O)N(Cc1ccccc1)C(C)C | inconclusive [inhibitor, single point] | 
CCn1nc(C)c(CNC(=O)C2CCC(=O)N(CCc3ccc(OC)cc3)C2)c1C (centres undefined) |  | inactive: 1.14%
N=C1C(c2nc(-c3ccc(Cl)cc3)cs2)=C(O)CN1CCCN1CCOCC1 | active: 25.9 µM | 
Cc1ccc(Cl)cc1N1CCN(C(=O)c2ccc(CS(=O)(=O)c3ccc(Br)cc3)o2)CC1 | inconclusive [inhibitor, partial curve, poor fit] | 
CCCCCC(=O)Nc1ccc(S(=O)(=O)Nc2nccnc2OC)cc1 |  | inactive: -4.4%
O=C(N/N=C\c1ccccn1)c1ccccc1O | inconclusive [inhibitor, single point] | 
CN1C2C=C3C(C#N)=C(N)C(C#N)(C#N)[C@@H](c4ccc(Cl)cc4)[C@@H]3C1CC2 (some centres undefined) | inconclusive [inhibitor, single point] | 

SMILES | Potency | activity change, negative = growth inhibition
CCCCCCCCCCCC(=O)NC1CCS(=O)(=O)C1 (centres undefined) | inconclusive [inhibitor, single point] | 
CCCCCCN1C[C@@H](O)[C@H](n2cc(COC(=O)c3ccccc3)nn2)C[C@@H]1c1ccccc1 | inconclusive [inhibitor, single point] | 
O=C(Oc1c(Cl)cc(Cl)c2cccnc12)c1cccc([N+](=O)[O-])c1 | active: 3.26 µM | 
Cc1ccc(Cn2c(CO)cnc2SCc2cccc(F)c2)cc1 | inconclusive [inhibitor, partial curve] | 
COc1ccccc1C(=O)N(CN1CCCC1=O)c1cccc(Cl)c1 | inconclusive [inhibitor, partial curve] | 
Cc1cc(C)nc(SCCC(=O)N(C)C)n1 |  | inactive: 2.05%
Cc1c(C)n(Cc2ccccc2)c2ncnc(N)c12 | active: 23.1 µM | 
Cc1cccc(N(C)c2cc(C)nc3nc(C)nn23)c1 | inconclusive [inhibitor, partial curve, poor fit] | 
CN(C)S(=O)(=O)c1ccc(-c2csc(-c3cccnc3)n2)cc1 | inconclusive [inhibitor, single point] | 
Cc1ccc(Cl)cc1N1CCN(C(=O)CCn2c(=O)c3cccn3c3cccnc32)CC1 | active: 6.51 µM | 
CCOC(=O)c1cnc2c(C)cc(Cl)cc2c1N1CCN(C)CC1 | inconclusive [inhibitor, single point] | 
COC(=O)C1=C/C=C\CN(C(c2ccccc2)c2ccccc2)/C=C\1C(=O)OC | active: 20.6 µM | 
Cc1cccc(NC(=S)NCC23C=CC(O2)C2C(=O)N(c4ccc(Cl)cc4)C(=O)C23)c1 (centres undefined) | active: 20.6 µM | 
CN1CCN(c2ccc(S(=O)(=O)N3CCCCC3)cc2NC(=O)COc2ccc(F)cc2)CC1 | inconclusive [inhibitor, single point] | 
CCOC(=O)c1c(C)[nH]c(CCC(=O)NCc2cccc(OC)c2)c1C | inconclusive [inhibitor, single point] | 
CN1CCN(c2ccc(NC(=O)COc3ccccc3[N+](=O)[O-])cc2)CC1 |  | inconclusive: -30.9% [inhibitor]
O=C(OCc1cn([C@H]2C[C@H](c3ccccc3)N(CC3CCCCC3)C[C@@H]2O)nn1)c1ccccc1 | inconclusive [inhibitor, single point] | 
O=C(CCc1ccccc1)N1CCc2c([nH]c3ccccc23)C1c1ccc(Cl)cc1 (centres undefined) | active: 25.9 µM | 
Cn1c(=O)c2c(nc(CN3CCOCC3)n2Cc2ccccc2)n(C)c1=O |  | inactive: -21.3%
Cc1oc2ccc(O)c(CN3CCCCC3C)c2c1C(=O)Nc1ccccc1 (centres undefined) | inconclusive [inhibitor, single point] | 
CCc1ccc2oc(-c3ccc(OC)cc3)cc(=Nc3cccc(C(=O)O)c3)c2c1 | inconclusive [inhibitor, single point] | 
CCOC(=O)C1=C(c2ccccc2)NC(SCC(=O)NC2CCCCC2)=C(C#N)C1c1ccco1 (centres undefined) |  | inactive: 1.68%
CCN1C[C@@H]2[C@@H]3C(=O)N(C)C(=O)[C@@H]3[C@](Cc3ccccc3)(C(=O)OC)N2C1=NCc1ccccc1 |  | inactive: -3.68%
